Measured values taken from PubChem BioAssay AID485364 (National Center for Advancing Translational Sciences (NCATS), 2010).
Among all 360,000 compounds or so, about 11,000 (3.1%) were called active. Inconclusive means that the source gave no clear call. Such entries were picked first, then a sample of the others. Calls follow the shape of the dose curve; as a rule, active = well fitted inhibition curve with a large enough effect; inconclusive = small, poorly fitted or top-dose-only effect; inactive = no such curve, though single readings can be large or run the other way. No potency is given beside an inconclusive call; the fits are too rough.
% is scaled to controls: 0 for no effect and ±100 for the full control effect; potency is read from the fitted curve at half-maximal effect; tags tell the direction and shape of the fitted curve.
Also: nearly all actives have a fitted effect of over 60% in size.

What follows are compounds tested against Schistosoma mansoni thioredoxin glutathione reductase (TGR) (UniProt Q962Y6) (assay: qHTS Assay for the Inhibitors of Schistosoma Mansoni Peroxiredoxins). Conditions: purified TGR, DTNB reduction, TNB absorbance 405 nm; activity change, negative = inhibition: at 114 µM (top of the series) unless noted.
Outline: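 TGR 20 nM + NADPH 100 uM (dispensed conc.), cpd preinc 15 min RT; start with NADPH (500 uM addition) then DTNB (15 mM addition). Kinetic TNB absorbance, 405 nm filter. Four-parameter Hill fit across titration.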
`COc1ccc(C(C(=O)NC2CCCC2)N(C(=O)c2snc(-c3ccc(F)cc3)c2N)c2ccc(F)cc2)cc1` (stereo not given) was tested, and the “activity change, negative = inhibition” value was inactive: -27.5%. `O=C(Nc1cccc(C(=O)Nc2cccc(Br)c2)c1)c1ccccc1` was tested, and the “activity change, negative = inhibition” value was inactive: 11.8%. In the case of `COc1ccc(CCNC2CC(=O)N(CCc3ccc(OC)c(OC)c3)C2=O)cc1` (stereo not given), the Potency was inconclusive [inhibitor, full curve]. For `COc1ccccc1/C=C/C=C1\Oc2c(ccc(O)c2CN2CCN(CCO)CC2)C1=O`, the Potency was inconclusive [inhibitor, partial curve]. For `CCOC(=O)c1ccc(N2C(=O)CC(NC3CCN(C(=O)c4ccc(F)cc4)CC3)C2=O)cc1` (stereo not given), the Potency was active: 50.1 µM. In the case of `CCOc1ccc(C(=O)Nc2cc3c(cc2N2CCCC2)n(CC)c(=O)n3CC)cc1OCC`, the Potency was inconclusive [inhibitor, partial curve, poor fit]. `O=C(CSc1ccc(-c2ccco2)nn1)NCCc1ccccc1` was tested, and the Potency was active: 11.2 µM. With `S=C(NCc1ccco1)Nc1ccccn1` the Potency was active: 14.1 µM. With `Cc1ccc(C)c(N2CCN(C(=O)c3ccc(CS(=O)Cc4ccc(Cl)cc4)o3)CC2)c1` (stereo not given) the Potency was inconclusive [inhibitor, partial curve]. For `Cc1nccn1-c1c2c(c(C#N)c3nc4ccccc4n13)CCC2`, the Potency was active: 25.1 µM. In the case of `COCCC(=O)N1CCC(Oc2ccc(C(=O)NCCCC3CCCC3)cc2)CC1`, the “activity change, negative = inhibition” value was inactive: 0.413%. In the case of `O=C1CC(c2ccco2)CC2=C1C(c1ccccc1)n1nc(C(F)(F)F)nc1N2` (stereo not given), the Potency was inconclusive [inhibitor, partial curve]. `COc1ccc(NC2CCCN(C(=O)c3oc(C)cc3C)C2)cc1OC` (stereo not given) was tested, and the Potency was inconclusive [inhibitor, full curve, poor fit]. For `OCCNCCSc1ccc(Cl)cc1`, the Potency was inconclusive [inhibitor, partial curve]. For `CNC(=O)C(C#N)(Cc1cc(C(C)=O)ccc1OC)Cc1cc(C(C)=O)ccc1OC`, the Potency was active: 39.8 µM. `COc1cc([C@@H]2c3cc4c(cc3[C@@H](OC)[C@H]3COC(=O)[C@H]23)OCO4)cc(OC)c1O` was tested, and the “activity change, negative = inhibition” value was inactive: 10.4%. With `CN1C/C(=C/c2cccs2)C(=O)/C(=C\c2cccs2)C1` the Potency was inconclusive [inhibitor, partial curve]. In the case of `CC1CCN(S(=O)(=O)c2ccc3c(c2)N(CC(=O)NCCCN2C(C)CCCC2C)C(=O)CO3)CC1` (stereo not given), the “activity change, negative = inhibition” value was inactive: -2.46%. In the case of `COc1cc(CN2CCc3nc(N4CCN(c5ccccn5)CC4)ncc3C2)cc(OC)c1OC`, the “activity change, negative = inhibition” value was inactive: -0.336%. In the case of `COc1ccc([N+](=O)[O-])cc1NC(=O)C(C)N1CCN(C(=O)c2ccco2)CC1` (stereo not given), the Potency was inconclusive [inhibitor, partial curve].
